Measurements taken from patent US20230322882A1 (NANJING NORMAL UNIVERSITY, published 2023).
Like-named read-outs stand apart in the source and are kept apart here.

Legend:
Assay in all cases: cell-based or functional assay
[1] = biological target: T1, CD25, CD122 and CD132 receptor molecules on HEK-Blue IL-2 cells (UniProt P01589 22-272; P14784 27-551; P31785 23-369, limits assumed)
T1 sequence (looked up) 1: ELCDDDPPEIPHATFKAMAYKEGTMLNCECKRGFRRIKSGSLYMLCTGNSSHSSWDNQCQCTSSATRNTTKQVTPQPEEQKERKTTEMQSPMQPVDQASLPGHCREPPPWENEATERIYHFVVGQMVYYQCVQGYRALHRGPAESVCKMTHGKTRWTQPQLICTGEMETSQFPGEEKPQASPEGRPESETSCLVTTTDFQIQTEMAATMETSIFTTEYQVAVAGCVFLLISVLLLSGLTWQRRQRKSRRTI
T1 sequence (looked up) 2: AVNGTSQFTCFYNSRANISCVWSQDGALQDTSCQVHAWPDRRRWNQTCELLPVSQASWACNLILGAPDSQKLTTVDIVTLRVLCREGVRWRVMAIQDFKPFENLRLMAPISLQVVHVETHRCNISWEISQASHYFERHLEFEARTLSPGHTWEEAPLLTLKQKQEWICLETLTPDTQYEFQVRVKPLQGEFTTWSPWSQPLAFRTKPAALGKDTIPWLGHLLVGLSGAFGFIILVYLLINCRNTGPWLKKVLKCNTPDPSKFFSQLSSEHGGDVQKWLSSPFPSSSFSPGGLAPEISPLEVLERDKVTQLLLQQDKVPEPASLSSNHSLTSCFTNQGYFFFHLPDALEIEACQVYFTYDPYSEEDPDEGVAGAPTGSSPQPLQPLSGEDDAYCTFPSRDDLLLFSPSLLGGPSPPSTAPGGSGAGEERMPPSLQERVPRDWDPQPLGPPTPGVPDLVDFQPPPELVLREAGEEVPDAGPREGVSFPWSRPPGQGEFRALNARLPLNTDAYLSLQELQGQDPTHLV
T1 sequence (looked up) 3: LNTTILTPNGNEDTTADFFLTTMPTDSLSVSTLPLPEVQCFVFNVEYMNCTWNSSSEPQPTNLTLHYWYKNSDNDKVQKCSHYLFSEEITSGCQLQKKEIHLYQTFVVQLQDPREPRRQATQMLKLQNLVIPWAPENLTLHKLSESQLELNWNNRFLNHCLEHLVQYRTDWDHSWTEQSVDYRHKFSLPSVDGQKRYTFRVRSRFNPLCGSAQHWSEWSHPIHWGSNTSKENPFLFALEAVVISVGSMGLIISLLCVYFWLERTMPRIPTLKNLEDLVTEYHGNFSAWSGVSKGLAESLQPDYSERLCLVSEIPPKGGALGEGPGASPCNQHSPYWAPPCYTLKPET

[2] = biological target: T1, CD25, CD122 and CD132 receptor …; remark: listed apart in the source
[3] = biological target: T1, CD25, CD122 and CD132 receptor …; remark: listed apart in the source

B1: Fusion polypeptide of SEQ ID NO: 12 (HSA C361-IL2 loop1 permutated) (ligand)
chain: DAHKSEVAHRFKDLGEENFKALVLIAFAQYLQQSPFEDHVKLVNEVTEFAKTCVADAAAAAKLTRMLTFKFYMPKKATELKHLQCLEEELKPLEEVLNLAQSKNFHLRPRDLISNINVIVLELKGSETTFMCEYADETATIVEFLNRWITFSQSIISTLTGSGPASSSTKKTQLQLEHLLLDLQMILNGINNYKNPKESAENCDKSLHTLFGDKLCTVATLRETYGEMADCCAKQEPERNECFLQHKDDNPNLPRLVRPEVDVMCTAFHDNEETFLKKYLYEIARRHPYFYAPELLFFAKRYKAAFTECCQAADKAACLLPKLDELR[sequence of about 400 residues not given]
EC50 (pM), STAT5-regulated SEAP reporter in HEK-Blue IL-2 cells [1]: 1.75 pM

B2: Fusion polypeptide of SEQ ID NO: 14 (HSA A300-IL2 loop2 permutated) (ligand)
chain: DAHKSEVAHRFKDLGEENFKALVLIAFAQYLQQSPFEDHVKLVNEVTEFAKTCVADESAENCDKSLHTLFGDKLCTVATLRETYGEMADCCAKQEPERNECFLQHKDDNPNLPRLVRPEVDVMCTAFHDNEETFLKKYLYEIARRHPYFYAPELLFFAKRYKAAFTECCQAADKAACLLPKLDELRDEGKASSAKQRLKCASLQKFGERAFKAWAVARLSQRFPKAEFAEVSKLVTDLTKVHTECCHGDLLECADDRADLAKYICENQDSISSKLKECCEKPLLEKSHCIAEVENDEMPADLPSLAADFVESKDVCKNYAEAKDVFLGMFLYEYARRHPDYSVVLLLRLAKTYETTLEKCCANPKLTRMLTFKFYMPKKATELKHLQCLEEELKPLEEVLNLAQSKNFHLRPRDLISNINVIVLELKGSETTFMCEYADETATIVEFLNRWITFSQSIISTLTGSGPASSSTKKTQLQLEHLLLDLQMILNGINNYKAADPHECYAKVFDEFKPL[sequence of about 200 residues not given]
EC50 (pM), STAT5-regulated SEAP reporter in HEK-Blue IL-2 cells [2]: 5.86 pM

B3: Fusion polypeptide of SEQ ID NO: 13 (HSA D56-IL2 loop2 permutated) (ligand)
chain: DAHKSEVAHRFKDLGEENFKALVLIAFAQYLQQSPFEDHVKLVNEVTEFAKTCVADESAENCDKSLHTLFGDKLCTVATLRETYGEMADCCAKQEPERNECFLQHKDDNPNLPRLVRPEVDVMCTAFHDNEETFLKKYLYEIARRHPYFYAPELLFFAKRYKAAFTECCQAADKAACLLPKLDELRDEGKASSAKQRLKCASLQKFGERAFKAWAVARLSQRFPKAEFAEVSKLVTDLTKVHTECCHGDLLECADDRADLAKYICENQDSISSKLKECCEKPLLEKSHCIAEVENDEMPANPKLTRMLTFKFYMPKKATELKHLQCLEEELKPLEEVLNLAQSKNFHLRPRDLISNINVIVLELKGSETTFMCEYADETATIVEFLNRWITFSQSIISTLTGSGPASSSTKKTQLQLEHLLLDLQMILNGINNYKGDLPSLAADFVESKDVCKNYAEAKDVFLGMFLYEYARRHPDYSVVLLLRLAKTYETTLEKCCAAADPHECYAKVFDEFKPL[sequence of about 200 residues not given]
EC50 (pM), STAT5-regulated SEAP reporter in HEK-Blue IL-2 cells [3]: 6.36 pM
